From the supplement of paper PMC3334620
The full ranking holds about 33,000 sequences; the median of “E-score (-0.5 to 0.5)” is about -0.021, and the highest 2% start at about 0.32. This is one part of the list.

Molecular target: T1, Zap1 (UniProt P47043)
T1 sequence: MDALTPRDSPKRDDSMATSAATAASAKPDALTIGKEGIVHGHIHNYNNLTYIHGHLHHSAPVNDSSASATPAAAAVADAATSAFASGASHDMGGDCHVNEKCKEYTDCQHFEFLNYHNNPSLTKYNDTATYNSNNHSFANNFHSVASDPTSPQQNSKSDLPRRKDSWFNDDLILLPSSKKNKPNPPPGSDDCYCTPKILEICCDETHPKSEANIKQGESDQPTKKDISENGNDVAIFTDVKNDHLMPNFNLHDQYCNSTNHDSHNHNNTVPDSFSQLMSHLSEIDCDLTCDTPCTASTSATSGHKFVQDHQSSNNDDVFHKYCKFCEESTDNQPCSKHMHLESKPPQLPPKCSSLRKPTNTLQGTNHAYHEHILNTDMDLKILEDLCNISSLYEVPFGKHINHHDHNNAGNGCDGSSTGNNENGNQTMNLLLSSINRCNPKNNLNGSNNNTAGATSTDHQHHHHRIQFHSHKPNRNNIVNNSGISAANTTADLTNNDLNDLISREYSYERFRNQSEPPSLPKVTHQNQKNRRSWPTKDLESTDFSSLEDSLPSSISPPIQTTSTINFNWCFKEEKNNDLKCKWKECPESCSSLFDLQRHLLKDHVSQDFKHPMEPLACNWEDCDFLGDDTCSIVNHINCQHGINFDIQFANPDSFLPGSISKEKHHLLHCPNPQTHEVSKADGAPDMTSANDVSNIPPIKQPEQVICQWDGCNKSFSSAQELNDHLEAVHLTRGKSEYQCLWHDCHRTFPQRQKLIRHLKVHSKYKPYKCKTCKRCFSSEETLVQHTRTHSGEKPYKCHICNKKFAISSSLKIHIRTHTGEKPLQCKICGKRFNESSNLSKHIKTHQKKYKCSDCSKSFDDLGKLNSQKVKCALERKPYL
Test: PBM E-score (8-mer binding enrichment) (E-score (-0.5 to 0.5)); higher = stronger / more preferred TF binding; most listed sequences are background and not binding sites
Details: protein concentration: 200 nM; construct: GST-full length
Outline: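 Using PURExpress in vitro transcription/translation, GST-tagged yeast transcription factors were made in full-length or DNA-binding-domain form. These were applied at about 100-200 nM to double-stranded universal all-10-mer Agilent arrays, and bound protein was detected with fluorescent anti-GST. Scans were normalised with masliner before the Universal PBM Analysis Suite assigned E-scores to ungapped eight-base words pooled with their reverse complements.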

| Sequence | PBM E-score |
| --- | --- |
| GGCCTCAC | 0.019 |
| ATATGCGA | 0.0301 |
| ATCTGCTG | -0.184 |
| CCTTGCAG | 0.0828 |
| TAACTCAA | 0.179 |
| GCGAACAC | -0.146 |
| CTCCCCCA | -0.273 |
| CCAGGGGC | -0.163 |
| CTCACCTC | 0.135 |
| AACGACGG | -0.0791 |
| ACGGAGGA | -0.232 |
| CCACATTA | -0.102 |
| CGCGAGTA | 0.161 |
| CCTCGGGC | 0.00633 |
| CATTGTGA | 0.12 |
| GCAACAAA | 0.219 |
| CGAAGCTA | -0.214 |
| CCGACAGA | 0.17 |
| CGCCTCTA | -0.0576 |
| CCCCACAA | 0.205 |
| ACATTACG | -0.0728 |
| ATGCTTGC | -0.158 |
| CTGTACAG | 0.105 |
| AGGATCCT | 0.0996 |
| CTTTGGGA | -0.0583 |

| Sequence | PBM E-score |
| --- | --- |
| CGGCGCCC | -0.232 |
| GAGCTCAA | 0.0476 |
| CGGCTCTC | -0.0676 |
| AGCGGATA | -0.18 |
| ATCGGGGA | 0.0524 |
| CTAACAAG | 0.0748 |
| ACGTTCCT | -0.0976 |
| ACCAAGAG | 0.0448 |
| GGAATACA | 0.127 |
| ACGACCAC | 0.214 |
| AGAGGCGC | -0.335 |
| ACGCCCCT | -0.0421 |
| GGCTAGAA | -0.0341 |
| AGAGTGAA | 0.0257 |
| GCACTGCC | -0.0898 |
| TGAGAAAA | 0.127 |
| CATTTCTC | -0.0308 |
| AACCCCCA | -0.0716 |
| CAGCGGCC | -0.0185 |
| AAACCGAT | 0.0498 |
| ATGTGGTG | 0.0476 |
| CGTTATAG | 0.0032 |
| GCGGCTCA | 0.0986 |
| ACAACAGA | -0.159 |
| ATAGGCAG | -0.173 |

| Sequence | PBM E-score |
| --- | --- |
| CGTACTTC | -0.125 |
| ACATATCG | -0.0379 |
| CGCACCTA | -0.074 |
| TACCCGAA | 0.302 |
| GAGGTTCA | 0.254 |
| ATCACCCC | 0.277 |
| AACTTATC | -0.00431 |
| GCGCGTCC | -0.152 |
| CCTAGCCG | -0.191 |
| CTAAAAAC | 0.139 |
| AGCCCAGA | -0.0674 |
| ACGTTAAA | 0.101 |
| AAACTATG | -0.235 |
| CCCTGCGC | -0.156 |
| ACTGATTA | 0.0447 |
| TCGTGTCA | 0.0478 |
| CGTGCTTC | -0.042 |
| CGTTAAAG | 0.141 |
| CCACGTAG | -0.143 |
| AAGGGGCG | -0.209 |
| AAGACCAA | 0.127 |
| GCGCTTCA | -0.0175 |
| GAGACTGC | -0.196 |
| ATTCGCCG | 0.0118 |
| CGCGTAAG | 0.00731 |

| Sequence | PBM E-score |
| --- | --- |
| CGACACCA | -0.0859 |
| CAGCGCCA | -0.224 |
| CAATTATC | -0.0722 |
| GTAGCGAA | -0.0439 |
| AGGGTTTA | 0.315 |
| TCTTTAAA | 0.14 |
| ATTGAGGG | 0.0913 |
| AGACTCAC | -0.152 |
| CCGCTCCC | -0.327 |
| ATAAGTAT | -0.0416 |
| CAGGTTAG | 0.212 |
| CTTCGTTA | -0.115 |
| ATATCTAG | 0.0883 |
| CGGCCGCC | 0.066 |
| AATTGTGC | 0.108 |
| CCTATCGA | 0.0826 |
| CGTCAGGC | -0.166 |
| GAGGCCGA | -0.0852 |
| CTCCCACC | -0.157 |
| ACTTTATG | 0.178 |
| CGTCTAGA | -0.0845 |
| TAATAGGA | 0.0672 |
| GCGTACGA | -0.104 |
| CCACGACG | -0.0678 |
| CGTGCTCA | 0.0061 |

| Sequence | PBM E-score |
| --- | --- |
| GATGCCAA | -0.174 |
| ATTCCAAA | 0.0335 |
| CGCACTCA | -0.0476 |
| CGATAGAG | -0.236 |
| TGACCACA | 0.165 |
| GGCCGGCA | -0.114 |
| ACTTCTAG | -0.191 |
| AAACATAG | -0.0145 |
| AAGTGCGG | -0.076 |
| CCATTGTC | 0.0194 |
| AGCCGTAG | -0.173 |
| ATTGGGGG | -0.29 |
| ACAATAGA | -0.0361 |
| GCCAGTAA | -0.0458 |
| ACATGTTC | -0.132 |
| ACGGTAGC | 0.116 |
| CTCGCTTC | -0.156 |
| ACATATGG | 0.0536 |
| CTACAACC | 0.284 |
| GGCGCAGA | -0.163 |
| AACGTCGA | 0.0237 |
| CAAACGTG | -0.112 |
| TAGCATAA | 0.0467 |
| CACAATAG | 0.046 |
| GGCCGGAA | 0.079 |

| Sequence | PBM E-score |
| --- | --- |
| AAGACGGG | -0.0607 |
| AGACGGAC | -0.0987 |
| GACCGTAA | 0.176 |
| GCATTACC | 0.0693 |
| CAGCAGTA | -0.112 |
| CAGCTCTC | -0.383 |
| TAGGACTA | -0.0609 |
| AAATCTTG | 0.0159 |
| ATCCCCCA | -0.209 |
| ACTGGAAG | -0.176 |
| GCCTAAGC | -0.164 |
| GAACGCCC | 0.0206 |
| AATTTGGC | -0.0234 |
| ACGAGCGC | -0.102 |
| ATGTGATA | 0.0506 |
| AATTACGT | 0.0428 |
| CCACCAGC | -0.101 |
| GCCGGGAC | -0.199 |
| GACGCCGA | 0.022 |
| AGGAGCGG | -0.305 |
| AAGGCCAC | 0.0887 |
| ATGCCACA | -0.111 |
| GGAGGTAC | 0.13 |
| CCCCATTC | -0.0769 |
| GAAACTGC | -0.183 |

| Sequence | PBM E-score |
| --- | --- |
| TAATCATA | 0.217 |
| CGAGTTCC | 0.00468 |
| GCCCGCTA | -0.287 |
| CGAATTAC | -0.092 |
| TGATGACA | -0.0144 |
| TCCCGCGA | 0.00977 |
| GAGATATC | -0.0507 |
| ACTTATGC | 0.00488 |
| GGCGAACC | -0.135 |
| CAAAACTC | 0.0001 |
| CGCCGTAG | -0.198 |
| TTAACAAA | 0.124 |
| ACCAATAC | 0.146 |
| AGAGAGCA | -0.215 |
| CGATACAA | 0.0578 |
| CACAAATA | 0.233 |
| GCGTCGCA | -0.26 |
| AGGGTGCG | 0.0755 |
| CGGGTCCA | -0.035 |
| CCGCGCGG | 0.332 |
| ACAATACA | 0.0203 |
| AGCCAACG | -0.0542 |
